# Reference: PubChem BioAssay AID2451 (National Center for Advancing Translational Sciences (NCATS), 2010)
# Values joined by “and” are separate entries in the source; they are usually repeats but may differ in a detail not shown here. Equal values may be shown once. About 2,100 (0.72%) of roughly 290,000 compounds were called active. This list was built around the results that the source calls inconclusive (neither active nor inactive); the mix of calls is not that of the screen. The call rests on the fitted dose curve; in most records, active means well fitted inhibition curve with a large enough effect; inconclusive means small, poorly fitted or top-dose-only effect, or effect the other way; inactive means flat fitted curve, though single readings scatter. Potencies of inconclusive entries are doubtful fits and often do not repeat.
# Biological target: Fructose-bisphosphate aldolase (Giardia intestinalis (strain ATCC 50803 / WB clone C6)) (UniProt A8B2U2)
# Assay: qHTS Assay for Inhibitors of Fructose-1,6-bisphosphate Aldolase from Giardia Lamblia; further: nearly all actives have a fitted effect of over 55% in size
# Conditions: purified Giardia FBPA; series mostly up to 59.6 µM
# In short: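 40 nM FBPA preincubated 10 min at RT with compound (up to 57.5 uM final), then substrate plus GAPDH/TPI/NAD/arsenate coupling and diaphorase/resazurin added. Fluorescence read after 20 min at RT, 525/598 nm.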
# Potency means the concentration at half of the fitted maximal effect; tags describe the fitted curve by direction and shape.
# UniProt A8B2U2, sequence (A8B2U2 whole entry, looked up): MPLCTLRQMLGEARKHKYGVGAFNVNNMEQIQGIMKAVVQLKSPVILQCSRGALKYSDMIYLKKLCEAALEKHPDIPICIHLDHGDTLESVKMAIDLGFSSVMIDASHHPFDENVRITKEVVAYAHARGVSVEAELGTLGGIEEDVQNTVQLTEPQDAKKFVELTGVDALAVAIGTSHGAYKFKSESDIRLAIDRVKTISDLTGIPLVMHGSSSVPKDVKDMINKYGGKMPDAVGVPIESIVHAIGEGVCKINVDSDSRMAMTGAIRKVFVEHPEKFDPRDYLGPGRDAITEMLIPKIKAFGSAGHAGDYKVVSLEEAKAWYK
row,Compound,Potency
1,N#Cc1c(NC(=O)c2ccncc2)sc2c1CCC2,"inconclusive: 7.94 µM [inhibitor, partial curve]"
2,COc1cc([C@H](Cc2ccccc2)NC(C)=O)oc(=O)c1,"inconclusive: 19.9 µM [inhibitor, partial curve]"
3,O=[N+]([O-])c1ccccc1S(=O)(=O)N1CCN(Cc2ccc3c(c2)OCO3)CC1,"inconclusive: 17.7 µM [inhibitor, single point]"
4,O=C(O)CCn1c(Cc2ccccc2)nc2ccccc21,"inconclusive: 31.6 µM [inhibitor, single point]"
5,COC(=O)c1sc(NC(=S)NNC(=O)c2c(Br)c(C)nn2C)c(C(=O)OC)c1C,"inconclusive: 17.8 µM [inhibitor, partial curve]"
6,COc1cccc(/C=N/NC(=O)CNC(=O)c2cccs2)c1O,inactive
7,CCOc1cc(CNc2ccc(N(C)C)cc2)cc(Br)c1OCC(=O)NC(C)(C)C,active: 5 µM
8,CCOc1ccc(/C=N/NC(=S)NC2CC3C=CC2C3)cc1 (stereo unspecified),inactive
9,Cc1cccc(N(CC(=O)N/N=C/c2cc([N+](=O)[O-])ccc2Cl)S(C)(=O)=O)c1C,active: 17.7 µM
10,CCOC(=O)c1sc(NC(=O)CSc2n[nH]c(CC(C)C)n2)nc1C,inactive
11,Cc1cc(OCC(=O)N(C)Cc2ccccc2)ccc1Br,inactive
12,O=c1[nH]c2cc3c(cc2cc1CN(CCc1ccccc1)Cc1nnnn1C1CCCC1)OCCO3,"inconclusive: 14.1 µM [inhibitor, partial curve]"
13,Cc1ccccc1OCC(O)CNC1CCCC1 (stereo unspecified),inactive
14,Cc1ccnc(Nc2nc(-c3ccccc3)cs2)c1,inactive
15,O=[N+]([O-])c1ccc(Oc2cccc3cccnc23)c([N+](=O)[O-])c1,active: 19.9 µM
16,CC(C)C1(C)N=C(c2nc3ccccc3cc2C(=O)O)NC1=O (stereo unspecified),"inconclusive: 6.29 µM [inhibitor, full curve]"
17,COc1ccc(N(CCC(=O)O)S(=O)(=O)c2ccc(C)c(C)c2)cc1,"inconclusive: 17.7 µM [activator, single point]"
18,O=c1cc(CN2CCN(Cc3ccccc3)CC2)c2ccc(O)c(O)c2o1,active: 17.8 µM
19,Cc1[nH]c(=S)c(C#N)c(-c2ccccc2)c1C(=O)Nc1ccccc1,"inconclusive: 15.8 µM [activator, single point]"
20,CCN1CCN(Cc2ccc(C(=O)Nc3ccc(C)c(NCc4cnc(NC(=O)OC)cn4)c3)cc2C(F)(F)F)CC1,inactive
21,C1CSC2(N1)C1CC3CC2CC(C1)C31NCCS1 (stereo unspecified),"inconclusive: 15.8 µM [inhibitor, partial curve]"
22,C=C(C)C1CC=C(CN2CCN(Cc3ccccc3)CC2)CC1 (stereo unspecified),"inconclusive: 25.1 µM [inhibitor, partial curve]"
23,O=C(NC(=S)Nc1ccccc1)c1cccs1,"inconclusive: 10 µM [inhibitor, single point]"
24,O=C(O)CSc1nnnn1-c1ccc2c(c1)OCCO2,"inconclusive: 25.1 µM [activator, partial curve]"
25,CCCCCCCCCCCCC/C=C\[C@@H](O)[C@H](CO)NC(C)=O,inactive
26,Cc1ccc(-c2c3c([nH]c(=S)c2C#N)CCCC3)o1,"inconclusive: 15.8 µM [inhibitor, partial curve]"

row,Compound,Potency
1,Cc1ccc(NNC(=O)c2ccc(Cl)cc2)nn1,"inconclusive: 17.7 µM [inhibitor, partial curve]"
2,CCN1CCN(CCCN(Cc2ccco2)C(=S)Nc2cc(Cl)ccc2C)CC1,active: 15.8 µM
3,COCc1cc(=O)n2[nH]c(C(C)(C)C)cc2n1,"inconclusive: 17.7 µM [inhibitor, partial curve]"
4,O=C(Cc1ccccc1)N1CCN(Cc2cccc(Br)c2)CC1,"inconclusive: 11.2 µM [inhibitor, partial curve]"
5,c1ccc(-c2cn3c(n2)CCc2ccc4cccnc4c2-3)cc1,"inconclusive: 17.7 µM [inhibitor, single point]"
6,CCOc1ccc(CN2CCN(C(=O)c3cccc(F)c3)CC2)cc1,inactive
7,Cc1ccc(C(=O)Nc2nnc(S(=O)(=O)N3CCOCC3)s2)cc1,active: 17.8 µM
8,O=C1N(Cc2cccc(Cl)c2)C[C@@H]2C[C@@H](c3cccc4cccnc34)N3CCC[C@@]123,inactive
9,Cc1ccc(NC(=O)NCCc2ccc(S(N)(=O)=O)cc2)cc1,inactive
10,C=CCN=c1scc(-c2ccco2)n1/N=C/c1ccc(O)c(O)c1O,active: 22.3 µM
11,COc1ccc(C(C)=O)cc1CC(C(=O)c1ccc(C)cc1)N(C)C (stereo unspecified),inactive
12,Nn1c(C2COc3ccccc3O2)n[nH]c1=S (stereo unspecified),active: 6.29 µM
13,COc1cc([N+](=O)[O-])cc(/C=N/NC(=O)C(C)Nc2cccc3ccccc23)c1O (stereo unspecified),"inconclusive: 5 µM [inhibitor, single point]"
14,COc1ccc(N2C(=O)/C(=C/c3ccc(C)o3)C(=O)NC2=S)cc1,"inconclusive: 20 µM [inhibitor, partial curve]"
15,c1ccc2c(c1)Cc1cc3cc4c(cc3nc1-2)OCO4,"inconclusive: 19.9 µM [inhibitor, partial curve]"
16,COc1ccc(/C=C(\C#N)C(=O)OCC(=O)Nc2ccc(-c3nc4ccc(C)cc4s3)cc2)cc1,inactive
17,COCCNC(=S)NCCc1ccc(Cl)cc1Cl,inactive
18,COc1ccc2nc3c(cc2c1)c(NC(=O)c1cccs1)nn3CC(C)C,"inconclusive: 15.8 µM [inhibitor, single point]"
19,CCOc1cccc(C2C(C(=O)c3ccco3)=C(O)C(=O)N2Cc2ccncc2)c1 (stereo unspecified),"inconclusive: 3.15 µM [inhibitor, partial curve]"
20,CSc1ccc(/C=N\NC(=O)CNc2ccc(C)cc2)cc1,inactive
21,CCc1nnc(NC(=O)CSC(=S)N2CCOCC2)s1,"inconclusive: 22.4 µM [inhibitor, single point]"
22,O=C(C1=C(O)C(=O)N(c2ncccn2)C1c1ccc(Cl)c(Cl)c1)c1ccco1 (stereo unspecified),"inconclusive: 15.8 µM [inhibitor, single point]"
23,CC(C)Nc1ccc(-n2nc3ccccc3[n+]2[O-])cc1,inactive
24,O=C(Nc1ccc2nsnc2c1)N1CCCCCC1,inactive
25,CC(=O)Oc1ccc(C(=O)Nc2cccnc2)cc1,inactive
26,C(=N\Nc1ccccn1)/c1cccnc1,"inconclusive: 31.6 µM [inhibitor, partial curve]"

row,Compound,Potency
1,Cn1c(SCC(=O)c2ccc(O)c(O)c2)nnc1-c1ccccc1,"inconclusive: 11.2 µM [inhibitor, partial curve]"
2,COc1cccc(NC(=O)c2ccc3c(O)c(S(=O)(=O)c4ccccc4)c(=O)[nH]c3c2)c1,"inconclusive: 31.6 µM [activator, partial curve]"
3,C=CC(C1=CC(=O)C=CC1=O)c1ccc(O)cc1 (stereo unspecified),"inconclusive: 17.7 µM [inhibitor, partial curve]"
4,CCc1c(C)nc2cc(-c3cccc(Br)c3)[nH]n2c1=O,"inconclusive: 35.5 µM [inhibitor, single point]"
5,COc1cc(CNc2ccc3c(c2)CCC3)cc(OC)c1O,"inconclusive: 28.2 µM [inhibitor, partial curve]"
6,Cc1sc(NC(=S)NC(=O)CCc2ccccc2)c(C(N)=O)c1C,"inconclusive: 7.06 µM [activator, single point]"
7,CCOc1ccc(N2CSC3=C(C#N)C(c4ccco4)CC(=O)N3C2)cc1 (stereo unspecified),active: 7.92 µM
8,Cn1nnnc1SCC1=C(C(=O)O)N2C(=O)[C@@H](NC(=O)[C@H](O)c3ccccc3)[C@H]2SC1,"inconclusive: 15.8 µM [inhibitor, partial curve]"
9,Cc1ccc(S(=O)(=O)N2CCOCC2)cc1C(=O)O,inactive
10,COC(=O)CCC(=O)OC1(C)C(=O)C2=CN(CC3CC3)C(c3ccc(OC)cc3)=CC2=C(Br)C1=O (stereo unspecified),"inconclusive: 397 nM [inhibitor, full curve] and inconclusive: 1.58 µM [inhibitor, partial curve]"
11,COc1ccc(NC(=O)CSc2nc(O)cc(=O)n2-c2ccccc2OC)cc1,inactive
12,CCCCN(Cc1ccccc1)C1CCN(Cc2ccccc2)CC1,"inconclusive: 28.2 µM [inhibitor, single point]"
13,CCC(=O)N1CCc2cc(Br)cc(S(=O)(=O)N3CCCC(C(=O)NC(C)(C)C)C3)c21 (stereo unspecified),inactive
14,C[C@H](NC(=O)[C@H]1N2C(=O)c3ccccc3C2SC1(C)C)C(=O)N1CCCCC1 (stereo partly specified),active: 20 µM
15,O=C(NCC1CCCO1)C(c1ccncc1)N(Cc1cccs1)C(=O)CN1C(=O)c2ccccc2S1(=O)=O (stereo unspecified),inactive
16,C/C(=N\N(Cc1ccccc1)c1ccccc1)c1cccnc1,inactive
17,CCOC(=O)c1cnc2c(C)c(Cl)ccc2c1N1CCN(CC)CC1,"inconclusive: 31.6 µM [inhibitor, single point]"
18,COc1cc(C(=O)NC(c2ccccc2)c2ccccc2)cc(OC)c1OC,"inconclusive: 31.6 µM [activator, single point]"
19,O=c1c2cn[nH]c2[nH]c(=S)n1-c1ccccc1Cl,active: 25.1 µM
20,COc1cc(/C=C/c2nc3ccccc3c(=O)[nH]2)cc(Br)c1O,"inconclusive: 22.4 µM [inhibitor, partial curve]"
21,Cc1[nH]n(-c2ccccc2)c(=O)c1/C=N/NC(=O)c1cccc(F)c1,"inconclusive: 39.8 µM [activator, single point]"
22,O=C(Cc1cccs1)Nc1ccc(F)cc1,inactive
23,CCCn1c(CCC(=O)O)ccc1-c1ccc(OC)cc1,inactive
24,Cc1ccc(C)c(OCCOCCN2CC(C)OC(C)C2)c1C (stereo unspecified),active: 17.7 µM
